Reference: article PMC10320511
Results are given in words; binding and its absence hold for the method and conditions named. In cells and extracts the contact can be indirect. Some results given as binding are weak or reduced against the parent protein; the word gives no strength. Tags and fused reporters may be left off the sequences shown.

By UniProt entry, the sequences of proteins in these tests, tags left out.
UniProt Q01371: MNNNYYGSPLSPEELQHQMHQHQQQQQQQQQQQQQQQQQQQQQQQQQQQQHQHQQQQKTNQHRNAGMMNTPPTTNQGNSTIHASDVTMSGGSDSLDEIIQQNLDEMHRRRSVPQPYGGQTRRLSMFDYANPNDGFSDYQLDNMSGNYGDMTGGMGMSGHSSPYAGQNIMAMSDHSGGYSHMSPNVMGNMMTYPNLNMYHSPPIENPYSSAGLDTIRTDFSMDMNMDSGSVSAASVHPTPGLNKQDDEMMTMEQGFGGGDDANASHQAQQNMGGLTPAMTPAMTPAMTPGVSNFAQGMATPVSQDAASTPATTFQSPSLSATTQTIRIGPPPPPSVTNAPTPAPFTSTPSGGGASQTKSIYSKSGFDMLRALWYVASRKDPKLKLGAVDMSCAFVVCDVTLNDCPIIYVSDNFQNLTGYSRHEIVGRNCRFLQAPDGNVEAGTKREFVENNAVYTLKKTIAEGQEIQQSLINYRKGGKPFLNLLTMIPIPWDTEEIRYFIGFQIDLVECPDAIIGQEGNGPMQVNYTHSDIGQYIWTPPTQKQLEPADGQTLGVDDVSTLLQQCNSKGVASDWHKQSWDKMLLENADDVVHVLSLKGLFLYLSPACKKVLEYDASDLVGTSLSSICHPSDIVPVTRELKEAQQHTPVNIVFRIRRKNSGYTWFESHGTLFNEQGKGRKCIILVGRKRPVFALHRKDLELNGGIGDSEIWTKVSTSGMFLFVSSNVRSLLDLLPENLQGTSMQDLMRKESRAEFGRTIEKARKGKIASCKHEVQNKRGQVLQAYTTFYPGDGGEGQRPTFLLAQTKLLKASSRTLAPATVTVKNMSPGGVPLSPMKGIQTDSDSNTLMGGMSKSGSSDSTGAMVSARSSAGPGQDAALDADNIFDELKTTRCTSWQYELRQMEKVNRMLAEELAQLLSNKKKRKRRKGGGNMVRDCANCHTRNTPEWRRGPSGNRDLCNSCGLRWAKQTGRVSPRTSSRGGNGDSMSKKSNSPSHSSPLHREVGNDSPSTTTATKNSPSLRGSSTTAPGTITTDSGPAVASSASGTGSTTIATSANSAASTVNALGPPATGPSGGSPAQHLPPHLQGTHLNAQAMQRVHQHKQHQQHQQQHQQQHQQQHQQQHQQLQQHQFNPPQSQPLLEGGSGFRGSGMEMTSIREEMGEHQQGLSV

Key:
Assay in all cases: co-IP; V5H6-tagged FRQ (wild type or mutant) pulled down with V5 agarose from Neurospora lysate (cultures in the light, 25 °C); 50 mM Hepes pH 7.4, 137 mM NaCl, 10% glycerol, 0.4% NP-40; 4 °C, 2 h; Western blot with FRQ, FRH, WC-1 and WC-2 antibodies
[1] = molecular target: T1, FRQ 311–628, V5H6-tagged (Neurospora crassa) (UniProt P19970)
T1 sequence: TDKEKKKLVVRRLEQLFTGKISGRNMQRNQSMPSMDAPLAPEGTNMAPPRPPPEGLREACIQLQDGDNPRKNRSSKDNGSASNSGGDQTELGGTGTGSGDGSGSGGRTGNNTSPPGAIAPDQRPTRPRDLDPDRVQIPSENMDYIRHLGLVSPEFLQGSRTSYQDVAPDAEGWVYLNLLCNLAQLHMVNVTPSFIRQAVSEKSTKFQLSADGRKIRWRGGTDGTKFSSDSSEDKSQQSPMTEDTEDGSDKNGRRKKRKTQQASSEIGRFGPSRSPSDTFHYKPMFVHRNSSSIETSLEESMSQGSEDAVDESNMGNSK

[2] = molecular target: T2, FRQ Δ107–148, V5H6-tagged (Neurospora crassa) (UniProt P19970)
T2 sequence: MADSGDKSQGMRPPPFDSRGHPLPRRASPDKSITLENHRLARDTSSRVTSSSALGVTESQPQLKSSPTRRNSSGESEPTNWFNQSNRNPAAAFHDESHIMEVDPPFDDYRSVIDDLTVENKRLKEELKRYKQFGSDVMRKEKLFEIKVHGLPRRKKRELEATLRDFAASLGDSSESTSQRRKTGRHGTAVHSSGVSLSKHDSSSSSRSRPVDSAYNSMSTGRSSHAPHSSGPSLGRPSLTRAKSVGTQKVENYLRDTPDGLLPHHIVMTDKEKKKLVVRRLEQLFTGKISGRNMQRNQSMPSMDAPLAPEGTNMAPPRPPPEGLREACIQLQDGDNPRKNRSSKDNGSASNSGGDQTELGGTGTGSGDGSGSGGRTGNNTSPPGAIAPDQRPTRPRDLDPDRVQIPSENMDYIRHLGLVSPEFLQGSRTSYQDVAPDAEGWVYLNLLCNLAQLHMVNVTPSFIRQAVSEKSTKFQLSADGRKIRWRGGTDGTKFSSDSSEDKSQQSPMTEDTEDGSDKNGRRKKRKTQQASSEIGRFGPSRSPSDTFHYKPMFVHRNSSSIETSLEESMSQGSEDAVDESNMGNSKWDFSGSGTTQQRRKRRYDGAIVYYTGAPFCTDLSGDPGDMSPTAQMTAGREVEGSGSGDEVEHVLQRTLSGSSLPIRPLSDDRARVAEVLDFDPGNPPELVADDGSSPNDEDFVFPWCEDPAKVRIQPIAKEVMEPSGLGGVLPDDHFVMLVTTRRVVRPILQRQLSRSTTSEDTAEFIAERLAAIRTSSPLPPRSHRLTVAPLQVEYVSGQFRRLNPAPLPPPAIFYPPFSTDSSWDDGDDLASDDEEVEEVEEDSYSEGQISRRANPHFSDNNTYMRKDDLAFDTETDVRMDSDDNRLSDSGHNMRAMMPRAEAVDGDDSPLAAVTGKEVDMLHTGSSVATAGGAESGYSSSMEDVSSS

[3] = molecular target: T3, FRQ E183A, E187A, V5H6-tagged (Neurospora crassa) (UniProt P19970)
T3 sequence: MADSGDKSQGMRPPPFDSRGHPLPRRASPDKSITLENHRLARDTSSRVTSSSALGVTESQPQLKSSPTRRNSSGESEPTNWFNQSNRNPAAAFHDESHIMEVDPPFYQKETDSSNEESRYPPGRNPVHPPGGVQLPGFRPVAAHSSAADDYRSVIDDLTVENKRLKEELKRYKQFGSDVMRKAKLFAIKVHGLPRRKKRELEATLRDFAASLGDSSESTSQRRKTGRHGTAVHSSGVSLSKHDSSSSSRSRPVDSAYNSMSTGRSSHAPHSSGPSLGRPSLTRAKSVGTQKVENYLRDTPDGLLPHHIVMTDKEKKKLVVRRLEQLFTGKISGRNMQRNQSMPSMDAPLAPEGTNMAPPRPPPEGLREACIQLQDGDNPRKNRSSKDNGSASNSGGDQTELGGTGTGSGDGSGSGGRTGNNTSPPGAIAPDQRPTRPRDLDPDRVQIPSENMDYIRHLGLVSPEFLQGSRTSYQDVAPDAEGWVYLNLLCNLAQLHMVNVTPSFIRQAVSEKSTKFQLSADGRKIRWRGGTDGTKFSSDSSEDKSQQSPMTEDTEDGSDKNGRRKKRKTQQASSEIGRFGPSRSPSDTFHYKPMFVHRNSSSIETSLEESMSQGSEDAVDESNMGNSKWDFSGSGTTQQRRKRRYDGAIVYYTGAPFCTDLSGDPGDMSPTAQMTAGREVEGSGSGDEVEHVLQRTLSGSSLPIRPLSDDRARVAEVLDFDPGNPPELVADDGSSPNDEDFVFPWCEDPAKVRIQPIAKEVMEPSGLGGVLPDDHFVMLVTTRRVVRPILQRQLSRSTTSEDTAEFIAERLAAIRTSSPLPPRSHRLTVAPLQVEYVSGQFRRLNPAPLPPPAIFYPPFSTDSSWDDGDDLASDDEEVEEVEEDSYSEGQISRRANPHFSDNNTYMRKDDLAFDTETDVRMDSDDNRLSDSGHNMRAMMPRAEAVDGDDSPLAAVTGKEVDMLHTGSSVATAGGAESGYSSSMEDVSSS

“White Collar-1 (WC-1) (from UniProt Q01371 1-1167)” was tested, and the binding [1] was “no binding”, the binding [2] was “binds weakly” and the binding [3] was “no binding”.
